Consider 26 compounds from PubChem BioAssay AID212 (DTP/NCI, 2004).

Structures are written as SMILES. Records with an inconclusive call do not appear. Certain results were filed several times, with different values. The list is limited to them. The source may hold further records. Results that share an entry repeat one measurement (runs, samples, wells, individuals or studies). A tag in brackets gives the origin of a value. Letters hold for one entry only. Counts like (3×) count equal records among those shown.

For this assay, the system named is BDF1 mice, colon carcinoma 38 sc, T/C %. In words: NCI In Vivo Anticancer Drug Screen. Data for tumor model Colon Carcinoma 38 (subcutaneous) in B6D2F1 (BDF1) mice. As to conditions: endpoint: median tumor weight (est.), higher = larger tumour. Here is the method:
The antitumor activity of compounds was measured in mice bearing transplantable tumors. Survival or tumor size were measured and the results are expressed as the measurement made in the treated group (T) divided by the measurement made in the vehicle treated control group (C). The tumor model used in this assay is Colon Carcinoma 38 (subcutaneous) in B6D2F1 (BDF1) mice

Setting [1] is: dose: 12.5 mg/kg/injection, schedule: Q07DX003 (ip), vehicle: Klucel (hydroxypropylcellulose) (HPC).
Setting [2] is: dose: 50.0 mg/kg/injection, schedule: Q07DX003 (ip), vehicle: Klucel (hydroxypropylcellulose) (HPC).
The mark [3] stands for this setting: dose: 25.0 mg/kg/injection, schedule: Q07DX002 (ip), vehicle: saline.
The mark [4] stands for this setting: dose: 25.0 mg/kg/injection, schedule: Q07DX002 (ip), vehicle: saline with Tween-80.
The mark [5] stands for this setting: dose: 100.0 mg/kg/injection, schedule: Q07DX002 (ip), vehicle: saline with Tween-80.
Setting [6] is: dose: 400.0 mg/kg/injection, schedule: Q07DX002 (ip), vehicle: saline with Tween-80.
Setting [7] is: dose: 50.0 mg/kg/injection, schedule: Q07DX002 (ip), vehicle: saline with Tween-80.

Take `CCCCC(C)(C(=O)OCC)C(=O)OCC`: the T/C runs as follows: under setting [1], 78 % of control and 116 % of control; under setting [2], 66 % of control and 92 % of control; (dose: 100.0 mg/kg/injection, schedule: Q07DX003 (ip), vehicle: Klucel (hydroxypropylcellulose) (HPC)) 66 % of control and 96 % of control.

For the compound `O=C1CN(CN2CCOCC2)C(=O)CN1CN1CCOCC1`, the T/C is 62 % of control and 113 % of control under setting [3]; 78 % of control and 152 % of control (dose: 200.0 mg/kg/injection, schedule: Q07DX002 (ip), vehicle: saline).

On to `CN(C)c1ccc2c(N(C)C)cc(N(C)C)nc2c1`, for which the T/C was 57 % of control and 93 % of control (dose: 6.25 mg/kg/injection, schedule: Q07DX002 (ip), vehicle: Klucel (hydroxypropylcellulose) (HPC)); 100 % of control and 164 % of control (dose: 50.0 mg/kg/injection, schedule: Q07DX002 (ip), vehicle: Klucel (hydroxypropylcellulose) (HPC)).

For the compound `CCOC(=O)C(C)(C)Oc1ccc(Cl)cc1`, the T/C under setting [4] is 94 % of control and 124 % of control.

In the case of `COCCCNC1=C(C#N)C(=O)NC(c2cccc([N+](=O)[O-])c2)S1` (centres undefined), the T/C reads like this: under setting [5], 84 % of control and 121 % of control; under setting [6], 121 % of control and 169 % of control.

For `CCOC(=O)c1c[nH]c2oc(/C=N/N3CC(CN4CCOCC4)OC3=O)cc2c1=O` (centres undefined), the T/C is, setting by setting: (dose: 12.5 mg/kg/injection, schedule: Q07DX003 (ip), vehicle: saline) 108 % of control and 178 % of control; (dose: 50.0 mg/kg/injection, schedule: Q07DX003 (ip), vehicle: saline) 101 % of control and 175 % of control; (dose: 400.0 mg/kg/injection, schedule: Q07DX003 (ip), vehicle: saline) 73 % of control and 161 % of control.

`CCN(C)N=Nc1ccc(C(N)=O)cc1`: the T/C (dose: 200.0 mg/kg/injection, schedule: Q07DX002 (ip), vehicle: Klucel (hydroxypropylcellulose) (HPC)) is 22 % of control, 57 % of control, 74 % of control.

`NC(Cc1ccc(N(CCCl)Cc2ccccc2)cc1)C(=O)O` (centres undefined): the T/C (dose: 100.0 mg/kg/injection, schedule: Q07DX002 (ip), vehicle: distilled water + Tween-80) is 64 % of control and 97 % of control.

In the case of `CCCCCCCCCCCCSC1=C(Cl)C(=O)C(OC)=C(OC)C1=O`, the T/C runs as follows: (dose: 12.5 mg/kg/injection, schedule: Q07DX002 (ip), vehicle: saline with Tween-80) 77 % of control and 103 % of control; under setting [5], 42 % of control and 82 % of control.

`COc1ccc2c(NCCCCCCNc3c4ccccc4nc4cc(OC)ccc34)c3ccccc3nc2c1`: the T/C is 52 % of control and 166 % of control (dose: 0.62 mg/kg/injection, schedule: Q07DX002 (ip), vehicle: lactic acid); 74 % of control, 95 % of control, 104 % of control (dose: 1.25 mg/kg/injection, schedule: Q07DX002 (ip), vehicle: lactic acid); 33 % of control, 77 % of control, 89 % of control (dose: 2.5 mg/kg/injection, schedule: Q07DX002 (ip), vehicle: lactic acid); 46 % of control, 64 % of control, 103 % of control (dose: 5.0 mg/kg/injection, schedule: Q07DX002 (ip), vehicle: lactic acid); 26 % of control, 84 % of control, 105 % of control (dose: 10.0 mg/kg/injection, schedule: Q07DX002 (ip), vehicle: lactic acid).

Consider `CCC1=C[C@H]2CN(CCc3c([nH]c4ccccc34)[C@@](C(=O)OC)(c3cc4c(cc3OC)N(C)[C@H]3[C@@](O)(C(=O)OC)[C@H](OC(C)=O)[C@]5(CC)C=CCN6CC[C@]43[C@@H]65)C2)C1`, for which the T/C is 67 % of control and 116 % of control (dose: 0.5 mg/kg/injection, schedule: Q07DX002 (ip), vehicle: water); 75 % of control and 109 % of control (dose: 1.0 mg/kg/injection, schedule: Q07DX002 (ip), vehicle: water); 65 % of control, 85 % of control, 95 % of control (dose: 2.0 mg/kg/injection, schedule: Q07DX002 (ip), vehicle: water); 29 % of control, 73 % of control, 92 % of control (dose: 8.0 mg/kg/injection, schedule: Q07DX002 (ip), vehicle: water); 31 % of control and 72 % of control (dose: 16.0 mg/kg/injection, schedule: Q07DX002 (ip), vehicle: water).

With `O=[N+]([O-])/C=C\c1ccc2c(c1)OCO2`, the T/C was 42 % of control and 101 % of control (dose: 6.25 mg/kg/injection, schedule: Q07DX003 (ip), vehicle: Klucel (hydroxypropylcellulose) (HPC)); 36 % of control and 62 % of control under setting [1]; 57 % of control and 101 % of control under setting [2].

Turning to `CS(C)=O`, the T/C (dose: 3.0 grams/kg/injection, schedule: Q07DX003 (ip), vehicle: saline) was 83 % of control and 120 % of control.

Regarding `O=c1n(CC2CO2)c(=O)n(CC2CO2)c(=O)n1CC1CO1` (centres undefined), the T/C was 161 % of control [sample A] and 120 % of control [sample B] under setting [4]; 66 % of control [sample A] and 86 % of control, 107 % of control [sample B] (dose: 25.0 mg/kg/injection, schedule: Q07DX002 (ip), vehicle: suspension in saline).

`CN(C)N=Nc1cccc(C(N)=O)c1`: under “dose: 80.0 mg/kg/injection, schedule: Q07DX002 (ip), vehicle: saline”, the T/C is 38 % of control and 79 % of control.

As to `Nc1ccc2c(c1)CN1C(=O)c3ccccc3C1=N2`, the T/C is 51 % of control and 105 % of control (dose: 25.0 mg/kg/injection, schedule: Q07DX002 (ip), vehicle: other); 58 % of control and 100 % of control (dose: 50.0 mg/kg/injection, schedule: Q07DX002 (ip), vehicle: other).

As for `OCC1OC(n2cnc3c(=S)nc[nH]c32)C(O)C1O` (centres undefined), the T/C was 55 % of control [sample A] and 70 % of control, 124 % of control (2×) [sample B] under setting [5]; 30 % of control [sample A] and 79 % of control, 92 % of control [sample B] (dose: 200.0 mg/kg/injection, schedule: Q07DX002 (ip), vehicle: saline with Tween-80); 21 % of control [sample A] and 43 % of control, 82 % of control, 100 % of control [sample B] under setting [6].

Take `O=NNc1ccccn1`: the T/C under setting [3] is 75 % of control and 111 % of control.

In the case of `COc1cc2cc3c4cc(OC)c(OC)cc4cc[n+]3c(C)c2cc1OC` (tested in a mixture with another compound), the T/C (dose: 200.0 mg/kg/injection, schedule: Q07DX003 (ip), vehicle: saline) is 41 % of control and 74 % of control.

Regarding `O=c1nc(Oc2ccccc2)nc2ncccn12`, the T/C runs as follows: (dose: 6.25 mg/kg/injection, schedule: Q07DX002 (ip), vehicle: saline with Tween-80) 94 % of control and 121 % of control; under setting [7], 83 % of control and 120 % of control.

As to `c1cnc2ncncc2n1`, the T/C runs as follows: under setting [4], 57 % of control and 119 % of control; under setting [7], 80 % of control and 109 % of control.

For the compound `O=C1C=CC(=O)N1c1ccc(Cl)cc1`, the T/C runs as follows: (dose: 2.5 mg/kg/injection, schedule: Q07DX002 (ip), vehicle: Klucel (hydroxypropylcellulose) (HPC)) 34 % of control, 56 % of control, 108 % of control; (dose: 5.0 mg/kg/injection, schedule: Q07DX002 (ip), vehicle: Klucel (hydroxypropylcellulose) (HPC)) 39 % of control (2×) and 83 % of control.

As for `O=C(O)C1CC(c2ccccc2)=NN1c1ccccc1` (centres undefined), the T/C (dose: 50.0 mg/kg/injection, schedule: Q07DX002 (ip), vehicle: water) was 96 % of control and 177 % of control.

As to `COc1cccc2c1C(=O)c1c(O)c3c(c(O)c1C2=O)C[C@@](O)(C(=O)CO)C[C@@H]3OC1CC(N)C(O)C(C)O1` (some centres undefined), the T/C runs as follows: (dose: 0.25 mg/kg/injection, schedule: Q07DX002 (ip), vehicle: saline) 85 % of control and 123 % of control; (dose: 1.5 mg/kg/injection, schedule: Q07DX003 (iv), vehicle: saline) 91 % of control and 151 % of control; (dose: 6.0 mg/kg/injection, schedule: Q07DX002 (ip), vehicle: saline) 33 % of control [sample A] and 97 % of control [sample B]; (dose: 6.0 mg/kg/injection, schedule: Q07DX003 (iv), vehicle: saline) 15 % of control and 62 % of control.

In the case of `OC1CCCC2CCC[N-]C12.OC1CCCC2CCC[N-]C12.[Mn+2]` (centres undefined), the T/C (dose: 25.0 mg/kg/injection, schedule: Q07DX002 (ip), vehicle: Klucel (hydroxypropylcellulose) (HPC)) is 36 % of control and 123 % of control.

Consider `CCCCCCCCCCCCCCCCCC(=O)Nc1ccn(C2OC(CO)C(O)C2O)c(=O)n1` (centres undefined), for which, under setting [4], the T/C is 61 % of control and 102 % of control.
